# Data reported in the RNAGym collection of RNA variant scans (doi:10.1093/nar/gkz1192).
# Read counts are not given, so values of variants with three or more changes are uncertain.
# B1: CPEB3 Ribozyme (parent)
# chain: UAACAGGGGGCCACAGCAGAAGCGUUCACGUCGCAGCCCCUGUCAGAUUCUGGUGAAUCUGCGAAUUCUGCUGUAUAUCUC
# Variants of: B1
# Test: self-cleavage, relative activity (ratio to wild type); higher = more cleavage; in vitro, sequencing
# Outline: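 After error-prone PCR and barcoding, CPEB3 ribozyme mutant libraries were transcribed with T7 RNA polymerase at 37°C for 5 hours, then given 15 min with DNase I before an EDTA stop, and they cleaved during both steps. Reverse transcription with template switching preceded Illumina sequencing. Relative activity divides a variant's cleaved/total read fraction by the unmutated ribozyme's. At least 5 reads were required per variant, and three batches were averaged.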
row,Variant,self-cleavage
1,UAACAGGGGGCCACACCAGAAGCGUUUACGUCGCAGCCCCUGUCAGAUUCUGGUGAAUCCGCGAAUUCUGCUGUAUAUCUC [G16C C27U U60C],0.14
2,UAACAGGGGGCCACACCAGAGGCGUUCACGUCGCAGCCCCUGUCAGAUUCUGGUGAAUCUGCGAAGUCUGCUGUAUACCUC [G16C A21G U66G U78C],0.21
3,UAACAGGGGGCCACAACAGAAGCGUCCACGUCGCAGCCCCAGUCAGAUUCUGGUGAAUCUGCGAAUUCUGCUGUAUAUCAC [G16A U26C U41A U80A],0.3
4,UAACAGGGGGCCACAACAGAAGCGUUCACGUCGCAGCCCCUGUCAGAUUCUGGUGUAUCUGCGAAUUCUGCUGUAUGUCUC [G16A A56U A77G],0.09
5,UAACAGGGGGCCACAACAGAAGCGUUCACGCCGCAGCCCCUGUCAGAUUCUGGUGAAUCUGCGAAUUCUGCUGCAUAACUC [G16A U31C U74C U78A],0.43
6,UAACAGGGGGCCACAACAGAAGCGUUCACGACGCAGCCCCUGUCAGAUUCAGGUGAAUCUGCGAAUUCUGCUGUAUAUCUC [G16A U31A U51A],0.25
7,UAACAGGGGGCCACAACAGAAGCGUUCACGUCGCAGCCCCAGUCAGAUUCUGGUGAAUCUGCGAGUUCUGCUGUAUAUCUC [G16A U41A A65G],0.12
8,UAACAGGGGGCCACAACAGAAGCGUUCACGCCGCAGCCCCUGUCAGAUUCUGGUGUAUCUGCGAAUUCUGCUGUAUGUCAC [G16A U31C A56U A77G U80A],0.07
9,UAACAGGGGGCCACAACAGAAGCGUUCACGUCGCAGCCCCUGUCAGUUUCUGGUGAAUCGGCGAAUUCUGCUGUAUAUCUC [G16A A47U U60G],0.21
10,UAACAGGGGGCCACAACAGAAGCGCUCACGACGCAGCCCCUGUCAGAUUCUGGUGAAUCUGCGAAUUCUGCUGUAUAUCUC [G16A U25C U31A],0.06
11,UAACAGGGGGCCACACCAGGAGCGUUCACGUCGCAGCCCCUGUCAGAUUCUGGAGAAUCUGCGAAUUCUGCUGUGUAUCUC [G16C A20G U54A A75G],0.52
12,UAACAGGGGGCCACAACAGAAGCGUUCACGUCGCUGCCCCUGUCAUAUUCUGGUGAAUCUGCGAAUUCUGCUGUAUAUCUC [G16A A35U G46U],0.35
13,UAACAGGGGGCCACAACAGAAGCGUUCACGUCGCAGCCCCUGUCAGAUUCUGGUGGAUCUACGAAUUCUGCCGUAUAUCUC [G16A A56G G61A U72C],0.1
14,UAACAGGGGGCCACAACAGAAGCGCUCACGUCGCGGCCCCUGUCGGAUUCUGGUGAAUCUGCGAAUUCUGCUGUAUAUCUC [G16A U25C A35G A45G],0.12
15,UAACAGGGGGCCACACCAGAAGCGUUCACGUCGCCGCCCCUGUCAGUUUCUGGUGAGUCCGCGAAUUCUGCUGUAUAUCUC [G16C A35C A47U A57G U60C],0.44
16,UAACAGGGGGCCACACCAGAAGCGUUCACGUCGCAGCCCCUGUCAGGUUCUGGUGAAUCUGCGCAUUCUGCUGUAUAUCUC [G16C A47G A64C],0.16
17,UAACAGGGGGCCACAACAGUAGCGUUCACGUCGCAGCCUCUGUCAGAUUCUGGUGAAUCUGCGAAUUCUGCUGAAUAUCCC [G16A A20U C39U U74A U80C],0.06

row,Variant,self-cleavage
1,UAACAGGGGGCCACAACAGAAGCGUUCACGUCGCGGCCCCAGUCAGAUUCUGGUGUUUCUGCGAAUUCUGCUGUAUGUCUC [G16A A35G U41A A56U A57U A77G],0.04
2,UAACAGGGGGCCACAACAGAAGCGUUCACGUCGCAGCCCCUGUCAGAUUCUGGUGUAUCUGCGACUUUAGCUGUAUAUCUC [G16A A56U A65C C68U U69A],0.07
3,UAACAGGGGGCCACAACAGAAGCGUUCAUGUCGCAGCCCCUGUCAGAUUCUGGUGAAUCUGCGAAUUCUGCGGUAUACCAC [G16A C29U U72G U78C U80A],0.07
4,UAACAGGGGGCCACAACAGAAGCGUCCACGUCGCAGCCCCUGUCAGAUUCUGCUGAAUCAGCGAAUUCUGCUGUAUAUCUC [G16A U26C G53C U60A],0.35
5,UAACAGGGGGCCACAACAGAGGCGUUCACGUCGCAGCCCCUGUCAGAUUCCGGUGAAUCUGCGAAUUCUGCUGUAUAUCUC [G16A A21G U51C],0.24
6,UAACAGGGGGCCACAACAGAAGCGUCCACGUCGCAGCCCCCGUCGGAUUCAGGUGAUUCUGAGAAUUCUGCUGUAUAUCUC [G16A U26C U41C A45G U51A A57U C62A],0.09
7,UAACAGGGGGCCACAACAGAAGCGUUCACGUCGCAGCCCCUGCCAGUUUCUGGUGAGUCUGCGAAUUCUGCUGUACAUCUC [G16A U43C A47U A57G U76C],0.11
8,UAACAGGGGGCCACAACAGAAGCGCCCACGUCGCAGCCCCUGUCAGAUUCAGGUGGAUCUGCGAAUUCUGCUGUAUAUCUC [G16A U25C U26C U51A A56G],0.07
9,UAACAGGGGGCCACAACAUAAGCGUUCACGUCGCAGCCCCUGACAGAUUCUGGUGAGUCUGCGAAUUCUGCCGUAUAUCUC [G16A G19U U43A A57G U72C],0.08
10,UAACAGGGGGCCACAACAGAAGCGUUCACGUCGCAGCCCCUGUCAGAUUCUGGUGAAUCUGCGAAUCCUGCUGUCUAUCUC [G16A U67C A75C],0.13
11,UAACAGGGGGCCACAACAGAAGCGUUCGCGUCGCGGCCCCCGUCAGAUUCUGGUGGAUCUGCGAAUUCUGCUGUAAAUCAC [G16A A28G A35G U41C A56G U76A U80A],0.13
12,UAACAGGGGGCCACAACAGAAGCGUUCACGUCGCAGCCCCUGUCAGAUUCUGGUGGGUCUGCGAAUUCUGUUGUAUAUCUC [G16A A56G A57G C71U],0.21
13,UAACAGGGGGCCACAACAGAAGCGACCAUGUCACAGCCCCUGUCAGAUUAUGGUGAAUCUGCGAAUUCUGCUGUAUCUCUC [G16A U25A U26C C29U G33A C50A A77C],0.07
14,UAACAGGGGGCCACAACAGAAGCGUUCACGUCGCAGCCCCUGUCAGAUCCUGGUGAAUCUGCGAAUUCUUCUGUAUAUCUC [G16A U49C G70U],0.12
15,UAACAGGGGGCCACACCAGAAGUGUUCACGUCGCAGCCCUUGUCAGAUUCUGGUGAAUCUGCGAAUUCUGCUGUAUAUCUC [G16C C23U C40U],0.23
16,UAACAGGGGGCCACAACAGAAGCGUUCACGUCGCAGCCCCUGUCAGAUUCUGGUGGAGCAGCGAAUUCUGCUGUAUAUCUC [G16A A56G U58G U60A],0.08
17,UAACAGGGGGCCACAACAGAAGCGUUCAUGUCGCAGCCCCUGCCAUAUUCUGGUGAAUCUGCGAAUUCUGCUGUAUAUCUC [G16A C29U U43C G46U],0.11
